Laboratory results: ChEMBL document CHEMBL1201862, “PubChem BioAssay data set” (2004)
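The compound was tested at five concentrations on cells cultured in 96-well plates, with a 48-hour exposure period. GI50 marks 50% less growth.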 The source made the active and inactive calls. Cut-off read from the data, not from the text of the source: active = GI50 up to about 1.1 µM and inactive = higher.

These molecules were tested on NCI-H322M (assay: NCI tumour cell line growth inhibition, 48 h).

SMILES | GI50
COC1=CC(=O)c2c(c(COP(=O)(N(C)CCBr)N(C)CCBr)cn2C)C1=O | active: 0.627 µM
CC(C)c1nccn1Cc1ccc(Cl)cc1Cl | inactive: 49.1 µM
O=C1c2ccccc2C(=O)N1CCCSc1ccccc1 | inactive: > 100 µM
COc1ccc(C(=O)NCCN(C)C)c2nc3ccccc3cc12 | inactive: 1.63 µM
N#Cc1c2c(c(Nc3ccc(F)cc3)n3c1nc1ccccc13)CCCC2 | inactive: > 100 µM
S=C(NCc1ccccc1)N/N=C/c1ccccn1 | inactive: 7.23 µM
COC1OC(CO)C(O)C(OC(=O)c2cc(O)c(O)c(O)c2)C1OC(=O)c1cc(O)c(O)c(O)c1 (configuration not stated) | inactive: > 100 µM
Cc1cc(Cc2c(F)c(F)c(C(c3cc(C)no3)c3c(F)c(F)c(F)c(F)c3F)c(F)c2F)on1 (configuration not stated) | inactive: > 100 µM
CCOC(OCC)[C@@H]1C[C@@H]2N(O[C@H](OC3CCCC3(c3ccccc3)c3ccccc3)[C@H](OC(C)=O)[C@@]2(CC)Cc2ccc(OC)c(OC)c2)O1 (some centres not stated) | inactive: > 100 µM
O=C1CC(CC(O)C(O)CO)CC(=O)N1 (configuration not stated) | inactive: > 100 µM
CCOC(=O)NC/C=C/COC1CCCCO1 (configuration not stated) | inactive: > 100 µM
O=C1/C(=C/c2ccc(Cl)cc2)CSc2ccccc21 | inactive: 73.6 µM
O=C1Nc2ccccc2C(=O)/C1=C/NC(=S)NCCc1ccccc1 | inactive: > 100 µM
O=C(NCCCOC(=O)CCCCCCCCC(=O)OCCCNC(=O)NC(=O)c1c[nH]c(=O)[nH]c1=O)NC(=O)c1c[nH]c(=O)[nH]c1=O | inactive: > 100 µM
O=c1c2c(no[n+]2[O-])c2ccccc2n1-c1ccccc1 | inactive: 15.9 µM
Cc1ccc(S(=O)(=O)C2=C(C(C)C)N=NC2(C)C)cc1 | inactive: > 100 µM
CN(C)CCNc1ccc(NCC[N+](C)(C)Cc2ccc([N+](=O)[O-])cc2)c2c1C(=O)c1c(O)ccc(O)c1C2=O | inactive: 46 µM
COc1ccc(/C=C(\C#N)c2nc3ccccc3c(=O)[nH]2)cc1 | inactive: 42.7 µM
COc1ccc(C#Cn2nnc3ccccc32)cc1 | inactive: 46.9 µM
Brc1ccc2c(-c3nc(-c4c[nH]c5ccc(Br)cc45)cs3)c[nH]c2c1 | inactive: 4.13 µM
O=C(O)Cc1cc(=O)oc2cc(O)c(Cl)cc12 | inactive: > 100 µM
CCOC(OCC)C(CC)[Se]c1ccccc1[N+](=O)[O-] (configuration not stated) | inactive: 3.24 µM
N#Cc1c(N)oc(-c2cccc([N+](=O)[O-])c2)c1C#N | inactive: 72.8 µM

SMILES | GI50
O=C1c2ccccc2CCCCCCCCCCC12OCCCO2 | inactive: 63 µM
CCOC(=O)C(=CNc1ccc(N(C2=NCC(C)S2)c2ccc(F)c(Cl)c2)cc1)C(=O)OCC (configuration not stated) | inactive: 25 µM
COC(=O)C(=O)C(C(=O)C(=O)Nc1ccc(Cl)cc1C)c1nc2ccc(C(=O)c3ccccc3)cc2nc1O (configuration not stated) | inactive: > 100 µM
O=c1cc2n(c(=O)[nH]1)C1OC(C(O)C1O)[C@@H]2CCO (some centres not stated) | inactive: > 100 µM
CC(=O)O[C@H]1CC[C@H]2[C@@H]3CC[C@H]4Nc5c(cnn5S(C)(=O)=O)C[C@]4(C)[C@H]3CC[C@]12C | inactive: 73.6 µM
CN(c1ccccc1Cl)S(=O)(=O)c1ccccc1 | inactive: > 100 µM
COC1C=C(Nc2cccc(Cl)c2)C(=O)C1 (configuration not stated) | inactive: 39 µM
COc1ccc(OC)c(NC(=O)C2=C(C)NC(C)=C(C(=O)Nc3cc(OC)ccc3OC)C2c2ccco2)c1 | inactive: > 100 µM
CCC(=O)Nc1ccc(/N=C/c2cccc(Oc3ccccc3)c2)cc1 | inactive: > 100 µM
COCOC1/C=C/CCCC#C[C@H](C)C(=O)CC1 (some centres not stated) | inactive: 14.9 µM
CC(C)(C)c1cc(S(=O)(=O)O)c2oc(-c3ccccc3)cc(=O)c2c1 | inactive: > 100 µM
C[C@@]12C[C@@H](c3ccccc3O1)N1Cc3ccccc3CSC1=N2 | inactive: > 100 µM
CC1(C)c2ccccc2C(O)C12CCC(=O)CC2 (configuration not stated) | inactive: 85.7 µM
O=C1c2cn[nH]c2N=C(Nc2ccccc2)C1/N=C/c1ccc([N+](=O)[O-])cc1 (configuration not stated) | inactive: > 10 µM
COc1cc(Cn2c3c(c4c(CN(C)C)c(O)ccc42)C(=O)c2ccccc2C3=O)cc(OC)c1 | inactive: 67.6 µM
CC(=O)Nc1ccc(/N=C2\C(c3ccccc3)=C(SC3=C(c4ccccc4)/C(=N\c4ccc(NC(C)=O)cc4)c4ccccc43)c3ccccc32)cc1 | inactive: 57.9 µM
On1c(-c2ccccc2)c(-c2c(-c3ccccc3)n(O)c3ccccc23)c2ccccc21 | inactive: 30.6 µM
CC1=C2[C@H](c3ccccc3)C3C=CC2(c2ccccc23)N(C(=O)C(c2ccccc2)c2ccccc2)C1=O (some centres not stated) | inactive: > 100 µM
O=C(CC1(O)C(=O)Nc2c(Cl)cc(Cl)cc21)c1ccc(F)cc1 (configuration not stated) | inactive: 75 µM
N=C(N)SCc1cn2ccccc2n1 | inactive: > 100 µM
COC(=O)C12C(=O)CC3CCC1C32C(=O)OC (configuration not stated) | inactive: > 100 µM
COC(=O)C#CC(N)=O | inactive: > 100 µM
NC(=O)c1oc([N+](=O)[O-])c(-c2ccccc2)c1-c1ccccc1 | inactive: 17.4 µM

SMILES | GI50
Cc1cc2nc(N3C(=O)/C(=C/c4ccccc4S)N=C3c3ccccc3)sc2cc1C | inactive: 53.6 µM
CCCCn1c(-c2ccccc2)cs/c1=N\N=C1C=C(C(C)(C)C)C(=O)C(C(C)(C)C)=C1 | inactive: > 100 µM
CC(=N\N=C\c1ccccn1)/C(C)=N/N=C/c1ccccn1 | inactive: > 100 µM
O=C1/C(=C\c2ccco2)Oc2ccccc21 | inactive: > 100 µM
COC(=O)c1nc(NN)cc(O)c1CCCCCc1c(O)nc(NN)nc1C(=O)OC | inactive: > 100 µM
O=[N+]([O-])c1ccc(C(=S)Nc2ccccc2)o1 | inactive: 5.28 µM
CC(C)OC(=O)c1cc(NC(=O)C(C)(C)C)c(F)cc1Cl | inactive: > 100 µM
COc1cccc(N2C(=O)CSC2c2cc(OC)c(OC)c(OC)c2)c1 (configuration not stated) | inactive: 38.5 µM
CCCCc1ccc(Nc2nc(Cl)c3ccn(C4CC(Oc5ccc(C)cc5)C(COc5ccc(C)cc5)O4)c3n2)cc1 (configuration not stated) | inactive: > 46.5 µM
c1ccc(C2=NOC3(c4ccccc4)SC4CCCCC4CN23)cc1 (configuration not stated) | inactive: 46.8 µM
CCC/C(Cl)=N\OC(=O)Nc1ccc(F)cc1 | inactive: > 100 µM
CC(C)(C)C(=O)OCC1CCC(n2cnc3c(=O)[nH]c(N)nc32)O1 (configuration not stated) | inactive: > 100 µM
CC(=O)OCC1OC(n2c(=O)n(-c3ccccc3)c(=O)c3ccccc32)C(OC(C)=O)C(OC(C)=O)C1OC(C)=O (configuration not stated) | inactive: > 100 µM
NC(=O)OCC1=C(COC(N)=O)C(=O)c2c(O)ccc(O)c2C1=O | inactive: > 100 µM
CC12C=C[C@]3(CC[C@@H]4[C@@](C)(CO)CCC[C@]4(C)C3CC1)C2 (some centres not stated) | inactive: > 41.5 µM
CC#N.O[C@@H]1CCCC[C@H]1O.O[C@@H]1CCCC[C@H]1O.[TeH2] | inactive: > 100 µM
OC1CC2CCC(C1)N2CCCN1c2ccccc2Sc2ccc(Cl)cc21 (configuration not stated) | inactive: 2.78 µM
CCc1c(Cc2cc(C)cc(C)c2)n2c(nc1=O)SCC2CBr (configuration not stated) | inactive: 38.3 µM
O=C(NC1CCN(Cc2ccccc2)CC1)c1ccccc1I | inactive: 39.5 µM
O=C(c1ccco1)N1CCCN(C(=O)c2ccco2)C1=S | inactive: > 100 µM
CN(C)Cc1cc(/C(=C(\C#N)c2ccccc2)c2ccc(O)cc2)ccc1O | inactive: 13.3 µM
